Where a chain is given by its changes, count along the chain named. The list shows a part of the results.
T1: UNK ZnF1-3 (human, UniProt Q9C0B0 31-174)
T1 sequence: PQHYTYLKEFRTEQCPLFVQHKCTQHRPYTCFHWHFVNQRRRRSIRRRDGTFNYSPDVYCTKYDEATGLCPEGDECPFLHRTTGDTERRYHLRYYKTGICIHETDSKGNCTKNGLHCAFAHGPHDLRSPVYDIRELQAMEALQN

B1: chr9:95013113:95013114:-_ENSG00000196305_ENST00000443024|hu_hu|hu_hu_hu_mus_False|58_78 (ssRNA)
RNA: GGGAGUUCUACAGUCCGACGAUCCUCAGUCAGAAAGGGCGUGUAAGGGGCCAUCAGUCUGCAAAGAGAAAGCAGGACACUAAACAAUGUCUCCAGAGCCAUGACACAGUCUUCCACCCCACUCUCACCCUUUAACCUCCUCCUCAACAGAGGAUUGAGCAUCA
B2: chr16:23113652:23113653:+_ENSMUSG00000022884_ENSMUST00000115341|mus_hu|motif|central (ssRNA)
RNA: GGGAGUUCUACAGUCCGACGAUCCCACAAGUAUAUUAUUAAAUGAUAGAGAACAUCUAAUACAACCAUUUCUACAGAACGGGGAAAUAAAUUUCUAAGAAAGAAAGAUUUUACAGACCCCAUCUUUUAUACCCACCCCAACAGCAACAGAGGAUUGAGCAUCA
B3: chr2:120842415:120842416:+_ENSMUSG00000023572_ENSMUST00000060455|mus_mus|motif|central (ssRNA)
RNA: GGGAGUUCUACAGUCCGACGAUCCUCUCCUAGCCUGGAGUCUUGGUAACAAUCUCUUCUUAAGGACAGAGGCUGCCUUUCGGUCGAGCAAACACCCUGUCAAAGCUCCACUUCUAAAAGCAGACGUUAAAAAAACUUAAAAAACAACAGAGGAUUGAGCAUCA
B4: chr11:4127340:4127341:+_ENSG00000167325_ENST00000300738|hu_mus|hu_hu_hu_mus_False|38_98 (ssRNA)
RNA: GGGAGUUCUACAGUCCGACGAUCGGCAUAGUCAGGGUGCUUAGUAGUCAAGGUCGCGGCUGUCUCAGCAGCCAGGGUGUCCAGUUCCACUGUGGUGACCCCACUGUAUAGGCCUUGGAUUACUUUCAUGGUGAUCUGAGCAGGCAACAGAGGAUUGAGCAUCA
B5: chr19:8913615:8913616:-_ENSMUSG00000071658_ENSMUST00000096259|mus_hu|mus_mus_mus_hu_False|48_98 (ssRNA)
RNA: GGGAGUUCUACAGUCCGACGAUCAGGGUACCAAAACACCCUGCCUCAAAUGGGUGCCCCACCCAGUAGGGAGUUGCAGCUGAAAGUAUCCGUAGCAGAAGCAGUGACUAUACGAAAGGAGGCCCCUGGGGAGGGCCAGGCCAGCAACAGAGGAUUGAGCAUCA
B6: chr7:54825262:54825263:-_ENSG00000132432_ENST00000352861|hu_hu|hu_hu_hu_mus_False|88_88 (ssRNA)
RNA: GGGAGUUCUACAGUCCGACGAUCCUGCCGGCUGGGCUCCACAAACUUUACCUGAUCAUCCAUGUUUGUUGGAUGGCGGAUUGAGAGCGUAGAGACACGUAGCUCAGGAGAGAACCGAGCCCAACGGAACCGGAAGCUGGCAACCAACAGAGGAUUGAGCAUCA
B7: chr10:36853299:36853300:-_ENSMUSG00000069662_ENSMUST00000092584|mus_hu|FALSE|FALSE (ssRNA)
RNA: GGGAGUUCUACAGUCCGACGAUCGCCAUAUUAACAUUUUUUUCCGUUAGAAAACAUGAUGUACAAAACUUUGGAUGAAAAGAUACGUCAAAUUUCAUUUAAUCACUUGGAGGAAAAUCCACCAACUCCAUCAAUACCACCCAACAACAGAGGAUUGAGCAUCA
B8: chr10:33221514:33221515:-_ENSG00000150093_ENST00000302278|perfect_dup|FALSE|FALSE (ssRNA)
RNA: GGGAGUUCUACAGUCCGACGAUCAUUUGGCCCUGCUUGUAUACAUUCUCCGCAAGAUUUGGCAUUUGCUUUUAAACAUCUAUUUUUAUCUGUUUGGCCAAAUACAGAACAAAUCAAACUGAUCAAUCCAAUCCAGGAAACCAGCAACAGAGGAUUGAGCAUCA
B9: chr1:163116782:163116783:-_ENSG00000143248_ENST00000313961|hu_hu|FALSE|FALSE (ssRNA)
RNA: GGGAGUUCUACAGUCCGACGAUCUUGAAAUAGGUCUGUCCACACUUAAUAUUCUUUUUUAGACCAAUUUAGCUGGAAAUCUAUUACUUAACCCACAUUCAUUGAUAUCAUAGUCUUGUCUUAUAUUUCUUUGCCUUAGGCAGGCAACAGAGGAUUGAGCAUCA
B10: chr1:212156110:212156111:-_ENSG00000143493_ENST00000366992|hu_hu|motif|central (ssRNA)
RNA: GGGAGUUCUACAGUCCGACGAUCUCCAUGAGCUGCAAUGCCCCUGUUAUUAUGGUAACAGCACUCUUGGGCUAAUUUGACGGAAUCAGAAGAUCUGGGAGAAGAACUCACAUUUCCUGGAACUAUACUGAAGUAAUGUUUGAUCAACAGAGGAUUGAGCAUCA
B11: 1733375_1747237_158_CDS_ENSG00000132383_ENST00000254719|human|control|control (ssRNA)
RNA: GGGAGUUCUACAGUCCGACGAUCCCCCGUAGUAAUGGGACGGAUGUUGAUGACUUGGAGGAUGGGCUUUAUGUUUGUAUCCCCCUUCUGCAUGAUGGCCGCAAUGGCCCCCUCGCUCAGUUGGCCGACCAUGGCUCCACCGCCCAACAGAGGAUUGAGCAUCA
B12: chr4:147379129:147379130:-_ENSMUSG00000029016_ENSMUST00000137724|mus_mus|FALSE|FALSE (ssRNA)
RNA: GGGAGUUCUACAGUCCGACGAUCUGUCCUAGAGGAGCAUGGGCCAGGGUGGGUAUGCCUGGACCCUGUCCACUCUGGGCUAAACUGAUGGUCACACACACACACACACACACUCGAUGGACAAAUCACAACAGGACUGGCUUGCAACAGAGGAUUGAGCAUCA
B13: chr7:54825262:54825263:-_ENSG00000132432_ENST00000352861|hu_mus|FALSE|FALSE (ssRNA)
RNA: B6 RNA with U47G, U48C, C50U, C51U, U52A, G53C, A54C, C56G
B14: chr22:32879901:32879902:+_ENSG00000100225_ENST00000397426|hu_mus|hu_hu_hu_mus_False|8_28 (ssRNA)
RNA: GGGAGUUCUACAGUCCGACGAUCCUCUUCCAUACUCAUGGCAUCCUGAAUUGACUCAGCUUCAACAUUUUGACUAGGCCCUUCCAUACUGUCAUCAGUCCAGGCAUCAGACUGGGCGGCCUGUCCUUGGAAUGAAUCAGUCCCCAACAGAGGAUUGAGCAUCA

What follows are binders tested against T1, UNK ZnF1-3 (assay: nsRBNS (natural sequence RNA bind-n-seq); RBNS binding buffer (assumed for nsRBNS): 25 mM Tris pH 7.5, 150 mM KCl, 3 mM MgCl2, 0.01% Triton X-100, 500 ug/ml BSA, 20 U/ml SUPERase-In, 4 C; UNK is unkempt and MSI1 is Musashi-1; names of the RNAs are library labels; protein concentration not given here; high values mean tight binding).

Q: For B1, which binding signal is on record?
A: 1.56 enrichment R

Q: B2 was tested. Which binding signal did it give?
A: 1.6 enrichment R

Q: Which binding signal does the source give for B3 here?
A: 1.23 enrichment R

Q: For B4, which binding signal is on record?
A: 0.836 enrichment R

Q: For B5, which binding signal is on record?
A: 1.59 enrichment R

Q: How did the binding signal turn out when B6 was run?
A: 1.03 enrichment R

Q: For B7, which binding signal is on record?
A: 1.21 enrichment R

Q: Which binding signal does the source give for B8 here?
A: 0.912 enrichment R

Q: For B9, which binding signal is on record?
A: 0.562 enrichment R

Q: For B10, which binding signal is on record?
A: 1.09 enrichment R

Q: With B11 as the binder, how does the binding signal read?
A: 1 enrichment R

Q: B12 was tested. Which binding signal did it give?
A: 1.8 enrichment R

Q: Which binding signal does the source give for B13 here?
A: 1.45 enrichment R

Q: With B14 as the binder, how does the binding signal read?
A: 0.956 enrichment R

— paper PMC12136788
